# Measurements reported in PubChem BioAssay AID1345082 (National Center for Advancing Translational Sciences (NCATS), 2018).
# Out of some 94,000 compounds screened, about 4,000 (4.3%) were called active. The inconclusive results got no clear call from the source; some entries with a clear call stand among them for comparison. Calls follow the shape of the dose curve; as a rule, active = well fitted inhibition curve with a large enough effect; inconclusive = small, poorly fitted or top-dose-only effect; inactive = no such curve, though single readings can be large or run the other way. A potency beside an inconclusive call is a rough fit, not a confirmed value.
# Experiment: Cytotoxic Profiling in NIH 3T3 Cell Line of Diverse Libraries Using Quantitative High-Throughput Screening; also: nearly all actives have a fitted effect of over 55% in size
# Details: NIH 3T3 viability, CellTiter-Glo ATP luminescence, 48-72 h; activity change, negative = cytotoxicity: at 96.7 µM (top of the series) unless noted; series mostly up to 96.7 µM
# Outline: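 Mouse fibroblast NIH 3T3 cells, 400 per well, received compound via pintool and were incubated for 48 or 72 hr prior to CellTiter-Glo ATP luminescence measurement.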
# % is scaled to controls: 0 for no effect and ±100 for the full control effect; potency is read from the fitted curve at half-maximal effect; tags tell the direction and shape of the fitted curve.
SMILES,Potency,"activity change, negative = cytotoxicity"
O=C(NCc1cnccn1)c1ccc(-c2ncc3cnc(-c4cccc(F)c4)cn23)cc1,"inconclusive: 56.2 µM [inhibitor, partial curve, poor fit]",
COc1cccc(CN2CC(O)CN(S(C)(=O)=O)CC2=O)c1OC (configuration not stated),"inconclusive: 79.4 µM [inhibitor, single point]",
CCn1cc2c3c(cccc31)CN(C(=O)c1ccc(OC)cc1)CC2,"inconclusive: 22.4 µM [inhibitor, full curve, poor fit]",
CCOC(=O)C1(Cc2ccccc2Cl)CCN(Cc2cccnc2)CC1,"inconclusive: 63.1 µM [inhibitor, partial curve, poor fit]",
O=C(c1ccc(Cl)cc1)N1CCn2c(nn(-c3cccc(Cl)c3)c2=O)C1,"inconclusive: 50.1 µM [inhibitor, partial curve, poor fit]",
COc1ccccc1-c1cccc(CN2CCCC(C(=O)NC3CC3)C2)c1 (configuration not stated),"inconclusive: 50.1 µM [inhibitor, partial curve, poor fit]",
COc1ccccc1CC(=O)N[C@@H]1CN(c2ncccn2)C[C@H]1CN(C)C,,inactive: -1.82%
CCOc1ccc(Nc2nc(-c3ccccc3)no2)cc1,active: 17.8 µM,
O=C(NCc1ccc(Cl)cc1)c1nc2sccn2c1-c1cccc(C(F)(F)F)c1,"inconclusive: 44.7 µM [inhibitor, partial curve, poor fit]",
C[C@@H]1C(=O)O[C@H]2[C@H]1CC[C@@]1(C)Cc3sc(NC(=O)c4ccc(F)c(Cl)c4)nc3[C@@H](C)[C@H]21,,inactive: -23.8%
COc1ccc(CN2C=C(C(=O)OCc3cc(=O)n4ccccc4n3)C(C)=NS2(=O)=O)cc1,"inconclusive: 15.8 µM [inhibitor, full curve]",
O=C1CO[C@H]2CN(c3nccc(C(F)(F)F)n3)C[C@H]2N1Cc1ccc(F)cc1,"inconclusive: 79.4 µM [inhibitor, partial curve, poor fit]",
O=C(c1ccccc1Cl)N1CCCC(C(=O)N2CCC(c3nc4ccncc4[nH]3)CC2)C1 (configuration not stated),,inactive: -22.7%
CNC(=O)[C@@H]1C[C@@H](N)CN1C(=O)c1ccc(OC)c(OC)c1OC,,inactive: -12.8%
CC(C)CC(=O)N1CCCC(c2noc(COc3ccccc3)n2)C1 (configuration not stated),"inconclusive: 50.1 µM [inhibitor, partial curve, poor fit]",
C#CCNC(=O)c1cn2cc(-c3ccc(F)cc3)sc2n1,,inactive: -32.3% [at 138 µM]
CN1CC(=O)N(c2ccccc2F)Cc2c(NCCc3ccccc3F)ncnc21,"inconclusive: 44.7 µM [inhibitor, partial curve, poor fit]",
